Laboratory results as given in patent publication US20260034244A1 (PANOLOS BIOSCIENCE, published 2026).
Substitutions are numbered along the chain they refer to. In names and notes the source's numbering stands.

T1: VEGF-A (UniProt P15692-4 27-191, limits assumed)
T1 construct: also called vascular endothelial growth factor A
T1 sequence (looked up): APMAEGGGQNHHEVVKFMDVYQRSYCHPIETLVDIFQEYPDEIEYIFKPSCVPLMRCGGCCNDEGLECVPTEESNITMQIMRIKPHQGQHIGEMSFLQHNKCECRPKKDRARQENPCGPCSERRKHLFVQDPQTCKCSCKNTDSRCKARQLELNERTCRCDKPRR

T2: PLGF (UniProt P49763-2 19-149, limits assumed)
T2 construct: also called placental growth factor
T2 sequence (looked up): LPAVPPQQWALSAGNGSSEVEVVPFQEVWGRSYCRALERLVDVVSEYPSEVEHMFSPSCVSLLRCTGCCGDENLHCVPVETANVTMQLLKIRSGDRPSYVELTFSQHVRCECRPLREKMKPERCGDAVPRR

T3: VEGF-A (UniProt P15692-4 27-191, limits assumed)
T3 construct: also called vascular endothelial growth factor A
T3 sequence (looked up): T1 sequence (looked up)

T4: PLGF (UniProt P49763-2 19-149, limits assumed)
T4 construct: also called placental growth factor
T4 sequence (looked up): T2 sequence (looked up)

T5: VEGF-A (UniProt P15692-4 27-191, limits assumed)
T5 construct: Analyte at 40, 20, 10 nM; also called vascular endothelial growth factor A
T5 sequence (looked up): T1 sequence (looked up)

T6: PLGF (UniProt P49763-2 19-149, limits assumed)
T6 construct: also called placental growth factor
T6 sequence (looked up): T2 sequence (looked up)

B1: C77 (Fc fusion)
chain: EFGRPFVEMYSEIPEIIHMTEGRELVIPCRVTSPNITVTLKKFPLDTLIPDGKRIIWDSRKGFIISNATYKEIGLLTCEATVNGHLYKTNYLTHRQTNTIIDVQISTPSPVTLCRGHTLVLNCTATTPANTRVQMTWSYPDEKNKNASVRRRIDQSNSHANIFYSVLTIDGMTNSDQGLYTCRVRSGPSFKSVNTSVHIYDCSKVDKKVEPKSSDTPP[gap - human IgG1 Fc]
notes: Based on VEGF-Grab3
B2: C83 (Fc fusion)
chain: B1 chain with A129D
notes: Based on VEGF-Grab3; L258D/K300G/Q302T/K304S/K306Q
B3: C78 (Fc fusion)
chain: EFGRPFVEMYSEIPEIIHMTEGRELVIPCRVTSPNITVTLKKFPLDTLIPDGKRIIWDSRKGFIISNATYKEIGLLTCEATVNGHLYKTNYLTHRQTNTIIDVQISTPSPVTLCRGHTLVLNCTATTPANTRVQMTWSYPDEKNKNASVRRRIDQSNSHANIFYSVLTIDGMTNSDQGLYTCRVRSGPSFKSVNTSVHIYDCSGGGGSAEPKAGDATPPTCPP[gap - human IgG1 Fc]
notes: Based on VEGF-Grab3; L258A/K300G/Q302T/K304S/K306Q
B4: C27 (Fc fusion)
chain: EFGRPFVEMYSEIPEIIHMTEGRELVIPCRVTSPNITVTLKKFPLDTLIPDGKRIIWDSRKGFIISNATYKEIGLLTCEATVNGHLYKTNYLTHRQTNTIIDVQISTPSPVELSVGETLVLNCTATTPANTRVQMTWSYPDEKNKNASVRRRIDQSNSHANIFYSVLTIDGMTNSDKGLYTCRVRSGPSFKSVNTSVHIYDE[gap - human IgG1 Fc]
notes: Based on VEGF-Grab3; K241E/L243S/R244V/H246E/L258A/K300G/Q302T/K304S; IgG1 Fc
B5: C25 (Fc fusion)
chain: B4 chain with K177Q
notes: Based on VEGF-Grab3; K241E/L243S/R244V/H246E/L258A/K300G/Q302T/K304S/K306Q; IgG1 Fc
B6: C26 (Fc fusion)
chain: B4 chain with T173Q, S175K
notes: Based on VEGF-Grab3; K241E/L243S/R244V/H246E/L258A/K300G; IgG1 Fc
B7: C29 (Fc fusion)
chain: B4 chain with E112T, S114L, V115R, E117H, K177Q
notes: Based on VEGF-Grab3; L258A/K300G/Q302T/K304S/K306Q; IgG1 Fc
B8: C30 (Fc fusion)
chain: B4 chain with A129L
notes: Based on VEGF-Grab3; K241E/L243S/R244V/H246E/K300G/Q302T/K304S; IgG1 Fc
B9: C28 (Fc fusion)
chain: B4 chain with E112T, S114L, V115R, E117H
notes: Based on VEGF-Grab3; L258A/K300G/Q302T/K304S; IgG1 Fc
B10: C39 (Fc fusion)
chain: B1 chain with C114L, A129L, G171K, T173Q, S175K, Q177K, C202G
notes: Linker variant based on VEGF-Grab3
B11: C41 (Fc fusion)
chain: EFGRPFVEMYSEIPEIIHMTEGRELVIPCRVTSPNITVTLKKFPLDTLIPDGKRIIWDSRKGFIISNATYKEIGLLTCEATVNGHLYKTNYLTHRQTNTIIDVQISTPSPVTLLRGHTLVLNCTATTPLNTRVQMTWSYPDEKNKNASVRRRIDQSNSHANIFYSVLTIDKMQNKDKGLYTCRVRSGPSFKSVNTSVHIYDGSGGGGSGGGGSGGGGSAESKYGPP[gap - human IgG1 Fc]
notes: as for B10
B12: C44 (Fc fusion)
chain: EFGRPFVEMYSEIPEIIHMTEGRELVIPCRVTSPNITVTLKKFPLDTLIPDGKRIIWDSRKGFIISNATYKEIGLLTCEATVNGHLYKTNYLTHRQTNTIIDVQISTPSPVTLLRGHTLVLNCTATTPLNTRVQMTWSYPDEKNKNASVRRRIDQSNSHANIFYSVLTIDKMQNKDKGLYTCRVRSGPSFKSVNTSVHIYDGSNTGSGGEEKKKEKEKEEQEERSSDTPP[gap - human IgG1 Fc]
notes: as for B10
B13: C43 (Fc fusion)
chain: EFGRPFVEMYSEIPEIIHMTEGRELVIPCRVTSPNITVTLKKFPLDTLIPDGKRIIWDSRKGFIISNATYKEIGLLTCEATVNGHLYKTNYLTHRQTNTIIDVQISTPSPVTLLRGHTLVLNCTATTPLNTRVQMTWSYPDEKNKNASVRRRIDQSNSHANIFYSVLTIDKMQNKDKGLYTCRVRSGPSFKSVNTSVHIYDGSNTGSGGEEKKKEKEKEEQEERSS[gap - human IgG1 Fc with H224Y (EU numbers)]
notes: as for B10
B14: C45 (Fc fusion)
chain: EFGRPFVEMYSEIPEIIHMTEGRELVIPCRVTSPNITVTLKKFPLDTLIPDGKRIIWDSRKGFIISNATYKEIGLLTCEATVNGHLYKTNYLTHRQTNTIIDVQISTPSPVTLLRGHTLVLNCTATTPLNTRVQMTWSYPDEKNKNASVRRRIDQSNSHANIFYSVLTIDKMQNKDKGLYTCRVRSGPSFKSVNTSVHIYDEGSSGGSSGEPKS[gap - human IgG1 Fc and a few adjoining residues]
notes: as for B10
B15: C34 (Fc fusion)
chain: EFGRPFVEMYSEIPEIIHMTEGRELVIPCRVTSPNITVTLKKFPLDTLIPDGKRIIWDSRKGFIISNATYKEIGLLTCEATVNGHLYKTNYLTHRQTNTIIDVQISTPSPVTLLRGHTLVLNCTATTPLNTRVQMTWSYPDEKNKNASVRRRIDQSNSHANIFYSVLTIDKMQNKDKGLYTCRVRSGPSFKSVNTSVHIYDGSSGEPKSSDKTYTS[gap - human IgG1 Fc with changes]
notes: as for B10
B16: C32 (Fc fusion)
chain: EFGRPFVEMYSEIPEIIHMTEGRELVIPCRVTSPNITVTLKKFPLDTLIPDGKRIIWDSRKGFIISNATYKEIGLLTCEATVNGHLYKTNYLTHRQTNTIIDVQISTPSPVTLLRGHTLVLNCTATTPLNTRVQMTWSYPDEKNKNASVRRRIDQSNSHANIFYSVLTIDKMQNKDKGLYTCRVRSGPSFKSVNTSVHIYDGSSG[gap - human IgG1 Fc with changes]
notes: Linker variant based on VEGF-Grab3; The Fc region is described as a dimerization domain

target: VEGF-A (UniProt P15692); experiment: cell-based or functional assay

Row | Binder | IC50 (µg/ml), luciferase reporter, KDR/NFAT-RE HEK293 cells
1 | B1 | 0.00624 µg/mL
2 | B2 | 0.0198 µg/mL
3 | B3 | 0.0108 µg/mL

target: T1, VEGF-A; experiment: BLI Octet; fold increase vs VEGF-Grab3 (Samsung Biologics)

Row | Binder | Fold (KD) | Fold (kdis) | Fold (kon)
4 | B4 | 0.05 fold | 0.03 fold | 1.43 fold
5 | B5 | – | 0.14 fold | 1.34 fold
6 | B6 | 0.03 fold | 0.02 fold | 1.36 fold
7 | B7 | 0.85 fold | 1 fold | 0.85 fold
8 | B8 | < 0.01 fold | < 0.01 fold | 1.67 fold
9 | B9 | 0.88 fold | 1 fold | 0.88 fold

target: T2, PLGF; experiment: as above

Row | Binder | Fold (KD) | Fold (kdis) | Fold (kon)
10 | B4 | 0.7 fold | 0.33 fold | 2.13 fold
11 | B5 | 0.56 fold | 0.44 fold | 1.28 fold
12 | B6 | 0.53 fold | 0.39 fold | 1.34 fold
13 | B7 | 0.57 fold | 0.52 fold | 1.09 fold
14 | B8 | 0.51 fold | 0.23 fold | 2.22 fold
15 | B9 | 0.52 fold | 0.51 fold | 1.02 fold

target: T3, VEGF-A; experiment: BLI (Octet, AHC sensor); fold increase vs VEGF-Grab3 (Samsung Biologics)

Row | Binder | Fold (KD) | Fold (kdis) | Fold (kon)
16 | B1 | 0.65 fold | 1 fold | 0.65 fold
17 | B2 | 0.01 fold | 0.01 fold | 0.77 fold
18 | B3 | 0.76 fold | 1 fold | 0.76 fold

target: T4, PLGF; experiment: as above

Row | Binder | Fold (KD) | Fold (kdis) | Fold (kon)
19 | B1 | 1.19 fold | 0.6 fold | 2 fold
20 | B2 | 1.11 fold | 0.65 fold | 1.69 fold
21 | B3 | 1.25 fold | 0.61 fold | 2.06 fold

target: T3, VEGF-A; experiment: BLI (Octet, AHC sensor); fold increase vs VEGF-Grab3 (Panolos Bioscience)

Row | Binder | Fold (KD) | Fold (kdis) | Fold (kon)
22 | B1 | > 100 fold | > 100 fold | 1.17 fold
23 | B2 | 1.48 fold | 1.07 fold | 1.38 fold
24 | B3 | > 100 fold | > 100 fold | 1.37 fold

target: T4, PLGF; experiment: as above

Row | Binder | Fold (KD) | Fold (kdis) | Fold (kon)
25 | B1 | 0.87 fold | 0.54 fold | 1.62 fold
26 | B2 | 0.81 fold | 0.59 fold | 1.37 fold
27 | B3 | 0.91 fold | 0.55 fold | 1.67 fold

target: T5, VEGF-A; experiment: BLI (Octet), fusion captured on AHC sensor; fold increase vs VEGF-Grab3 (Samsung Biologics)

Row | Binder | Fold (KD) | Fold (kdis) | Fold (kon)
28 | B10 | 0.21 fold | 0.14 fold | 1.49 fold
29 | B11 | 0.11 fold | 0.07 fold | 1.56 fold
30 | B12 | 0.09 fold | 0.05 fold | 1.71 fold
31 | B13 | 0.12 fold | 0.07 fold | 1.63 fold
32 | B14 | 0.15 fold | 0.12 fold | 1.23 fold
33 | B15 | 0.33 fold | 0.2 fold | 1.6 fold
34 | B16 | 0.57 fold | 0.37 fold | 1.53 fold

target: T6, PLGF; experiment: as above

Row | Binder | Fold (KD) | Fold (kdis) | Fold (kon)
35 | B10 | 6.64 fold | 2.65 fold | 2.5 fold
36 | B11 | 5.19 fold | 2.12 fold | 2.45 fold
37 | B12 | 2.48 fold | 1.42 fold | 1.74 fold
38 | B13 | 2.67 fold | 2.99 fold | 0.89 fold
39 | B14 | 2.59 fold | 1.5 fold | 1.72 fold
40 | B15 | 3.26 fold | 4.6 fold | 0.71 fold
41 | B16 | 4.4 fold | 3.85 fold | 1.14 fold
